Data as given in PubChem BioAssay (Tox21).
This list was built around the results that the source calls inconclusive (neither active nor inactive); the mix of calls is not that of the screen. For some of these results: Potencies beside an inconclusive call are fits to weak or partial responses and may not hold up. Calls of active or inactive are those of the source. Unless noted, the call rests on the fitted dose curve; in most records, active means well fitted curve in the direction sought with a large enough effect in the repeat runs; inconclusive means weak or mixed curves; inactive means no such curve, though single readings can be large; an effect the other way counts as inactive or inconclusive.

What was measured:
[1] = A CellTox Green Cytotoxicity Assay to monitor cytotoxicity in HepG2 cells - 32 hour (AID 1224883); conditions: CellTox Green fluorescence; series mostly up to 76.8 µM; further: nearly all actives have a fitted effect of over 50% in size; further: potency means the concentration at half of the fitted maximal effect
How it was run: (§1)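 Cells and non-lytic dye reagent are dispensed together (600 HepG2 cells/well) and incubated 5 h before DMSO compound transfer. Kinetic fluorescence is then recorded in the same wells during 40 h at 37 C.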

[2] = qHTS RealTime-Glo MT Cell Viability Assay in HepG2 cells - 16 hour (AID 1224885); conditions: RealTime-Glo luminescence; series mostly up to 76.8 µM; further: nearly all actives have a fitted effect of over 50% in size; further: potency means the concentration at half of the fitted maximal effect
How it was run: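 HepG2 cells were seeded at 600 cells/well together with NanoLuc luciferase and a cell-permeant prosubstrate, preincubated 5 h at 37 C/5% CO2, then pin-dosed with compounds in DMSO. Nonlytic luminescence from viable cells was read at each time point.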

[3] = A CellTox Green Cytotoxicity Assay to monitor cytotoxicity in HEK293 cells - 8 hour (AID 1224884); conditions: CellTox Green fluorescence; series mostly up to 76.8 µM; further: nearly all actives have a fitted effect of over 35% in size; further: potency means the concentration at half of the fitted maximal effect
How it was run: (§2)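 Cells (HEK293, 600/well) and dye reagent are dispensed together. After 5 h at 37 C, 23 nL compound is pinned in. Plates stay at 37 C for 40 h with fluorescence read at 0h, 8h, 16h, 24h, 32h and 40h.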

[4] = qHTS RealTime-Glo MT Cell Viability Assay in HEK293 cells - 24 hour (AID 1224886); conditions: RealTime-Glo luminescence; series mostly up to 76.8 µM; further: nearly all actives have a fitted effect of over 50% in size; further: potency means the concentration at half of the fitted maximal effect
How it was run: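 HEK293 cells were seeded at 600 cells/well together with NanoLuc luciferase and cell-permeant prosubstrate, preincubated 5 h at 37 C/5% CO2, then given compound in DMSO by pintool. Luminescence from viable-cell prosubstrate reduction was read repeatedly over 40 h.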

[5] = qHTS assay to identify small molecule antagonists of the estrogen receptor alpha (ER-alpha) signaling pathway using the BG1 cell line in the presence of 0.1 nM 17-beta-estradiol - cell viability counter screen (AID 1259241); conditions: VM7Luc4E2 (BG1) viability, CellTiter-Fluor protease, 22 h, 0.1 nM estradiol agonist added; series mostly up to 92.4 µM; further: potency means the concentration at half of the fitted maximal effect; nearly all actives have a fitted effect of over 40% in size
How it was run: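 Viability in VM7Luc4E2 cells after 22 hr compound exposure under 0.1 nM 17beta-estradiol stimulation, by CellTiter-Fluor.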

[6] = qHTS assay to identify small molecule antagonists of the androgen receptor (AR) signaling pathway using the MDA cell line in the presence of 0.5 nM R1881 - cell viability counter screen (AID 1259242); conditions: MDA-kb2 viability, CellTiter-Fluor protease fluorescence, 16 h; series mostly up to 92.4 µM; further: nearly all actives have a fitted effect of over 45% in size; further: potency means the concentration at half of the fitted maximal effect
How it was run: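 Steps: plate MDA-kb2 cells, rest 5 hr at 37C without CO2; pin in compounds in DMSO; add R1881 to 0.5 nM final; incubate 16 hr; add CellTiter-Fluor, 30 min; read fluorescence.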

[7] = qHTS assay to identify small molecule agonists of the sonic hedgehog signaling (Shh) pathway - cell viability counter screen (AID 1259366); conditions: NIH/3T3 Gli1-Luc viability, CellTiter-Fluor, 24 h; series mostly up to 92.4 µM; further: nearly all actives have a fitted effect of over 50% in size; further: potency means the concentration at half of the fitted maximal effect
How it was run: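 Stable Gli1-Luc NIH/3T3 clone, 2,000 cells/well. Compound exposure 24hr at 37C. Read-out: CellTiter-Fluor fluorescence.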

[8] = qHTS assay to identify small molecule antagonists of the sonic hedgehog signaling (Shh) pathway - cell viability counter screen (AID 1259367); conditions: NIH/3T3 Gli1-Luc viability, CellTiter-Fluor, 24 h; series mostly up to 92.4 µM; further: potency means the concentration at half of the fitted maximal effect; nearly all actives have a fitted effect of over 55% in size
How it was run: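 Cytotoxicity was assessed in parallel with Shh reporter activity by measuring live-cell protease fluorescence (CellTiter-Fluor) in NIH/3T3 cells stably carrying Gli1-Luc, treated with compound under conditioned medium stimulation for 23 hr plus 1 hr reagent incubation.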

[9] = qHTS RealTime-Glo MT Cell Viability Assay in HEK293 cells - 8 hour (AID 1224887); conditions: RealTime-Glo luminescence; series mostly up to 76.8 µM; further: nearly all actives have a fitted effect of over 50% in size; further: potency means the concentration at half of the fitted maximal effect
How it was run: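 Real-time viability in HEK293: signal arises when living cells convert a prosubstrate for NanoLuc in the medium, so luminescence tracks viable cell number. Compound (23 nL, DMSO) added 5 h post-seeding; kinetic reads at 0–40 h, 37 C.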

[10] = A CellTox Green Cytotoxicity Assay to monitor cytotoxicity in HEK293 cells - 16 hour (AID 1224888); conditions: CellTox Green fluorescence; series mostly up to 76.8 µM; further: nearly all actives have a fitted effect of over 35% in size; further: potency means the concentration at half of the fitted maximal effect
How it was run: as §2

[11] = A CellTox Green Cytotoxicity Assay to monitor cytotoxicity in HepG2 cells - 8 hour (AID 1224890); conditions: CellTox Green fluorescence; series mostly up to 76.8 µM; further: potency means the concentration at half of the fitted maximal effect; nearly all actives have a fitted effect of over 45% in size
How it was run: as §1

[12] = target: Estrogen receptor (Homo sapiens) (UniProt P03372); assay: qHTS assay to identify small molecule antagonists of the estrogen receptor alpha (ER-alpha) signaling pathway using the BG1 cell line in the presence of 0.1 nM 17-beta-estradiol (AID 1259244); conditions: VM7Luc4E2 (BG1) ERE-luciferase, antagonist mode, 0.1 nM E2, 22 h; series mostly up to 92.4 µM
UniProt P03372, sequence (P03372 whole entry, looked up): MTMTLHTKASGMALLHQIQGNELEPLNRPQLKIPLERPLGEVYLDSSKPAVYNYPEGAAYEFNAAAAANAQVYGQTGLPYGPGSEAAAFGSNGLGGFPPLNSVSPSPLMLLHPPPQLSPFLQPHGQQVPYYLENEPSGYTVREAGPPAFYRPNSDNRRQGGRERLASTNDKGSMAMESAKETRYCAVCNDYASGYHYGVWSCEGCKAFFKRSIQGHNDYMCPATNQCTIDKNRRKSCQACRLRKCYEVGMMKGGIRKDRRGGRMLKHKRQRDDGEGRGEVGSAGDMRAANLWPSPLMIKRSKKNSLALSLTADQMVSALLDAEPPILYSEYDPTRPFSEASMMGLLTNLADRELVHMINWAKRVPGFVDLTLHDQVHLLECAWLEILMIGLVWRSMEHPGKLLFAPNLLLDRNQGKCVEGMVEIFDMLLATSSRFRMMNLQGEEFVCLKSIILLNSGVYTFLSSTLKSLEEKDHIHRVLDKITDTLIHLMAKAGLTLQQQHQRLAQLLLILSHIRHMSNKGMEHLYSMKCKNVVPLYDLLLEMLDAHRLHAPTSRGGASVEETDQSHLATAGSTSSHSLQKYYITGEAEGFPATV
How it was run: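 Antagonist mode: compounds in DMSO are pinned onto VM7Luc4E2 reporter cells, 0.1 nM final 17beta-estradiol is added, and after 22 h at 37C luciferase luminescence is measured with ONE-Glo.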

[13] = qHTS assay to identify small molecule phospholipidosis (PLD) inducers (AID 1259344; active means well fitted curve in the direction sought with a large enough effect; inconclusive means small, poorly fitted or top-dose-only effect, or another doubt; inactive means no such curve, though single readings can be large; an effect the other way counts as inactive or inconclusive); conditions: HepG2 phospholipidosis, LipidTOX Red imaging, 24 h; series mostly up to 38.3 µM
How it was run: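 Cells (HepG2, 900 per well) attach for 4 h, receive LipidTOX Red and compound together, incubate 24 h at 37 C, are fixed 30 min with paraformaldehyde/Hoechst, then imaged at one site per well.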
Tags describe the fitted curve by direction and shape.

CCCCC(CC)COC(=O)CC#N (stereo not drawn)
Potency [1]: inactive

C=C(C)C(=O)OC1CC(C)CC(C)(C)C1 (stereo not drawn)
Potency [1]: inconclusive: 61.6 µM [activator, single point]

O=C(O)c1ccc2cc(O)ccc2c1
Potency [1]: inactive | Potency [2]: inactive

C/C(=N\O)[C@@H](C)NCC(C)(C)CN[C@H](C)/C(C)=N/O
Potency [1]: inactive | Potency [3]: inactive

C[C@@H]1O[C@@H](O[C@@H]2[C@@H](O)[C@H](OCCc3ccc(O)c(O)c3)O[C@H](CO[C@@H]3O[C@H](CO)[C@@H](O)[C@H](O)[C@H]3O)[C@H]2OC(=O)/C=C/c2ccc(O)c(O)c2)[C@H](O)[C@H](O)[C@H]1O
Potency [1]: inconclusive: 53.2 µM [activator, single point] | Potency [4]: inactive | Potency [5]: inconclusive: 37.3 µM [cytotoxic, partial curve] | Potency [6]: inactive | Potency [7]: inconclusive: 33.3 µM [cytotoxic, partial curve] | Potency [8]: inconclusive: 26.4 µM [cytotoxic, partial curve]

CCCCCCCCCCCCCCOS(=O)(=O)O
Potency [1]: active: 38.9 µM | Potency [3]: active: 21.9 µM | Potency [9]: inactive | Potency [10]: active: 43.6 µM | Potency [11]: inconclusive: 38.9 µM [activator, partial curve] | Potency [7]: inactive

c1cc(CN2CCCCC2)cc(OCCCNc2nc3ccccc3s2)c1
Potency [1]: active: 23.9 µM | Potency [2]: inconclusive: 16.9 µM [cytotoxic, partial curve] | Potency [4]: active: 9.52 µM | Potency [9]: active: 9.52 µM | Potency [10]: inactive | Potency [6]: inconclusive: 33.5 µM [cytotoxic, partial curve, poor fit] | Potency [12]: inconclusive: 33.5 µM [inhibitor, single point] | Potency [13]: inactive | Potency [7]: inconclusive: 9.44 µM [cytotoxic, partial curve] | Potency [8]: inconclusive: 13.3 µM [cytotoxic, partial curve, poor fit]
